# Measurements taken from PubChem BioAssay AID493208 (National Center for Advancing Translational Sciences (NCATS), 2011).
# About 340 (0.77%) of roughly 44,000 compounds were called active. About 5% were inconclusive and are not listed. Calls come from the whole dose curve; as a rule, active = well fitted inhibition curve with a large enough effect; inconclusive = small, poorly fitted or top-dose-only effect; inactive = flat fitted curve, though single readings scatter. Some of the results follow.
# Assay: Acumen qHTS Assay for Inhibitors of the mTORC1 Signaling Pathway in MEF (Tsc2-/-, p53-/-) Cells: Sytravon; note: nearly all actives have a fitted effect of over 50% in size;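 for activity change, negative = inhibition: plate controls were DMSO for no effect and rapamycin for full effect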
# Conditions: phospho-rpS6 immunofluorescence/PI, 24 h; series mostly up to 38.3 µM; activity change, negative = inhibition: at the top concentration
# Summary of the method: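 Immunofluorescence of rpS6 phosphorylation in Tsc2-/-, p53-/- MEFs after 24 h compound exposure, normalized to propidium iodide signal. Activity is expressed as % positive cells, thresholded with 7.5 nM rapamycin.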
# Potency is the fitted concentration of half-maximal effect.
SMILES,"activity change, negative = inhibition",Potency
CCOc1ccc(-n2nc(CO)c(C(=O)NCc3cccnc3)n2)cc1,inactive: -2.65%,
COc1cccc(N2CCN(C(=O)c3cc4c(=O)n(Cc5ccccc5)ccc4nc3C)CC2)c1,inactive: 0.728%,
Cc1cccn2c(=O)c(C(=O)NCc3ccccc3Cl)c(O)nc12,inactive: -0.41%,
COc1cc(C)ccc1OCCCn1c(-c2ccc(Cl)cc2)nc2ccccc2c1=O,inactive: 0.092%,
Cc1ccccc1-c1nc(CS(=O)CC(=O)N2CCN(c3cc(Cl)ccc3C)CC2)c(C)o1 (stereo not given),inactive: -6.39%,
CCC(=O)N1c2ccccc2CC1C(=O)NCc1cccc(C)c1 (stereo not given),inactive: 0%,
CCCCC(=O)Nc1cccc(-c2nc3ncccc3o2)c1C,inactive: 5.56%,
CCN(CC)CCCNC(=O)Cn1nc(C)n2c(cc3sccc32)c1=O,inactive: -4.86%,
Cc1ccc(C(=O)c2oc3ccccc3c2NC(=O)Cc2coc3cc(C)ccc23)cc1,inactive: -3.6%,
CCCCc1ccc(NC(=O)Cn2nnc3sc4c(c3c2=O)CCC(C)C4)cc1 (stereo not given),inactive: -1.29%,
COc1ccc(CCNC(=O)Cn2c(=O)n(-c3ccc(C)c(C)c3)c(=O)c3c(C)c(C)sc32)cc1OC,inactive: 7.12%,
COc1ccc(Cn2nnc3c(=O)[nH]c(C4CCCN(C(=O)c5ccc(C)cc5)C4)nc32)cc1 (stereo not given),inactive: -5.1%,
Cc1nn(S(=O)(=O)c2ccccc2)c(C)c1S(=O)(=O)N1CCC(C)CC1,inactive: -5.49%,
CCc1ccccc1NC(=O)Cn1ccn(-c2cc(C)cc(C)c2)c(=O)c1=O,inactive: -4.26%,
COc1ccc(NC(=O)c2ccc3oc(=O)c(S(=O)(=O)c4ccc(C)cc4)cc3c2)cc1OC,inactive: 2.19%,
CCOc1cccc(C2Nc3ccccc3-c3cc(C)nn32)c1O (stereo not given),inactive: 1.81%,
Clc1cccc(CSc2nncn3c2cc2sccc23)c1,inactive: -3.58%,
COc1ccc(OC)c(C(=O)c2c(N)c(-c3nc(-c4ccc(C)c(C)c4)cs3)c3ccccn23)c1,inactive: -3.66%,
CCn1c(=NC(=O)c2ccc3c(c2)OCCO3)sc2c(C)ccc(OC)c21,inactive: -18.6%,
CCOC(=O)C1(C)C=C(Nc2ccc(Br)cc2)C(=O)N1c1ccccc1 (stereo not given),inactive: -24.5%,

SMILES,"activity change, negative = inhibition",Potency
Cc1ccc(NC(=O)CSc2nc(C)c(Cc3ccccc3)c(=O)[nH]2)cc1C,inactive: -10%,
Cc1ccc(OCC(=O)Nc2ccc(OCc3cc(=O)n4cccc(C)c4n3)cc2)cc1C,inactive: -0.225%,
COc1ccc(CCNC(=O)Cc2c(C)c3c(cc(C)c4c(C)coc43)oc2=O)cc1OC,inactive: -1.06%,
Cc1nn(C(C)C(=O)NC2CCCCC2)c(=O)c2c1sc1ccccc12 (stereo not given),,active: 1.04 µM
Cc1ccc(-c2nnc(Nc3ccc(Br)cc3)c3ccccc23)cc1S(=O)(=O)N1CCN(C)CC1,inactive: -15.8%,
COc1ccc(CC(=O)NC2CC(=O)N(c3cccc(F)c3)C2)cc1 (stereo not given),inactive: -0.303%,
COc1ccc(CCNC(=O)c2ccc3c(c2)CCN3S(C)(=O)=O)cc1,inactive: -1.64%,
COc1ccc2c(CNCc3ccc(C)o3)c(C(=O)O)n(Cc3ccccc3C)c2c1,inactive: -4.78%,
CCN(C(=O)C(=O)Nc1ccc2nc3n(c(=O)c2c1)CCCCC3)c1ccc(F)cc1,inactive: -5.39%,
Cc1ccc2sc(N(Cc3cccnc3)C(=O)CCOc3ccccc3)nc2c1C,inactive: 5.8%,
Cc1c(C(=O)N(Cc2ccc(N(C)C)cc2)C2CCS(=O)(=O)C2)oc2ccccc12 (stereo not given),inactive: 6.69%,
O=C(c1ccc2c(c1)N(Cc1ccccc1)C(=O)c1ccccc1S2(=O)=O)N1CCN(c2ccccc2)CC1,inactive: 1.51%,
COc1ccc(OC)c(C2NC(=O)NC(C)=C2C(=O)Nc2cc(C)cc(C)c2)c1 (stereo not given),inactive: 15.9%,
O=C(Nc1c(C(=O)N2CCN(c3ccc(F)cc3)CC2)oc2ccccc12)c1c(F)cccc1F,inactive: -10.2%,
COc1ccc(C2CC(=O)c3cc(-c4nc(-c5cccc([N+](=O)[O-])c5)cs4)c(=O)n(-c4ccc(C)c(C)c4)c3C2)cc1 (stereo not given),inactive: -1.86%,
CC(C)Oc1ccc(C(=O)Nc2ccc3c(c2)CCCN3C(=O)c2cccs2)cc1,inactive: 0%,
CCC(Sc1nc2ccccc2c2nc(CCn3cncc3C)nn12)C(=O)Nc1cccc(OC)c1 (stereo not given),inactive: -23.3%,
CCC1CCCCN1CCCNC(=O)CN1C(=O)c2cccnc2Oc2ccc(Cl)cc21 (stereo not given),inactive: 0.721%,
COc1ccc(Cn2c(CNC(=O)c3ccc(N(C)C)cc3)nc3cccnc32)cc1,inactive: 0.995%,
Cc1cc(C)c2nc(N3CCCC(C(=O)NCc4cccc(Br)c4)C3)sc2c1 (stereo not given),inactive: -0.289%,

SMILES,"activity change, negative = inhibition",Potency
Fc1ccc(Nc2nc3ccccc3c3nncn23)c(Cl)c1,inactive: 0.167%,
Cc1ccc2oc(=O)c3cc(C(=O)Nc4ccc(F)cc4F)sc3c2c1,inactive: -11.7%,
COc1ccc(CCNC(=O)c2ccc(Cn3c(=O)c4ccccc4n(Cc4cc(C)ccc4C)c3=O)cc2)cc1OC,inactive: -17%,
Cc1ccc(NC(=O)c2oc3ccc(S(=O)(=O)N4CCCCCC4)cc3c2C)cc1Cl,inactive: -1.25%,
CCOC(=O)c1ccc(N2CCN(c3ccccc3F)CC2)c(NC(=O)Nc2ccc(Cl)c(Cl)c2)c1,inactive: 3.39%,
CC(C)CSc1nnc(-c2ccccc2)c(-c2ccccc2)n1,inactive: -7.68%,
CCCN1C(=O)c2[nH]nc(-c3ccccc3O)c2C1c1ccc(OCc2ccccc2)c(OCC)c1 (stereo not given),inactive: 3.76%,
Cc1ccc(Cl)cc1NC(=O)CN1C(=O)c2cccc3cccc1c23,inactive: -5.36%,
COc1ccc(C)c2sc(N(Cc3cccnc3)C(C)=O)nc12,inactive: -1.48%,
COc1ccc(-c2nc3ccccc3s2)cc1NC(=O)COc1ccccc1C,inactive: -2.25%,
COc1ccccc1OCCn1c(NC(=O)c2ccc(Cl)cc2)nc2ccccc21,inactive: 0.357%,
Cc1ccc(N(CC(=O)N2CCN(c3ccccc3F)CC2)S(=O)(=O)c2c(C)noc2C)cc1,inactive: -6.77%,
Cc1ccc(CCNC(=O)C(NS(=O)(=O)c2ccc3c(c2)oc(=O)n3C)C(C)C)cc1 (stereo not given),inactive: -2.67%,
CCOC(=O)CSc1ccc2nnc(CCNS(=O)(=O)c3ccccc3)n2n1,inactive: 3.15%,
COc1cc2c(cc1OC)C(c1ccc(F)cc1)N(c1cccc(C#N)c1)C(=O)C2 (stereo not given),inactive: 1.77%,
O=C(Nc1cccc(C(=O)OCc2cc(=O)n3nc(C4CC4)sc3n2)c1)c1cccc(F)c1,inactive: 0%,
CCOc1ccc(-n2c(SCC(=O)NCC3CCCO3)nc3c([nH]c4ccccc43)c2=O)cc1 (stereo not given),inactive: 0.209%,
COc1ccc(Cn2ccn(Cc3cccc(C)c3)c(=O)c2=O)cc1,inactive: 4.95%,
COc1cc2c(cc1OC)C(COc1ccc3c(C)cc(=O)oc3c1)N(C(=O)c1cccc(C)c1)CC2 (stereo not given),inactive: 1.26%,
Cn1c(=O)c(=O)n(C)c2cc(S(=O)(=O)N3CCCC3C(=O)Nc3ccccc3F)ccc21 (stereo not given),inactive: -1.79%,
